According to paper PMC4336329 (PLoS ONE, 2015):
Screen size: about 310,000 compounds; about 14,000 (4.5%) showed an effect of 50% or more. Effects have a minus sign here. Some of the results follow.

Molecular target: human ether-à-go-go-related gene (hERG) potassium channel (human, UniProt Q12809)
Experiment: primary screen, population patch clamp on CHO cells stably expressing hERG
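Note: peak tail current of the secondary pulse compared with the same well before compound.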

human ether-à-go-go-related gene (hERG) potassium channel, sequence (Q12809 whole entry, looked up): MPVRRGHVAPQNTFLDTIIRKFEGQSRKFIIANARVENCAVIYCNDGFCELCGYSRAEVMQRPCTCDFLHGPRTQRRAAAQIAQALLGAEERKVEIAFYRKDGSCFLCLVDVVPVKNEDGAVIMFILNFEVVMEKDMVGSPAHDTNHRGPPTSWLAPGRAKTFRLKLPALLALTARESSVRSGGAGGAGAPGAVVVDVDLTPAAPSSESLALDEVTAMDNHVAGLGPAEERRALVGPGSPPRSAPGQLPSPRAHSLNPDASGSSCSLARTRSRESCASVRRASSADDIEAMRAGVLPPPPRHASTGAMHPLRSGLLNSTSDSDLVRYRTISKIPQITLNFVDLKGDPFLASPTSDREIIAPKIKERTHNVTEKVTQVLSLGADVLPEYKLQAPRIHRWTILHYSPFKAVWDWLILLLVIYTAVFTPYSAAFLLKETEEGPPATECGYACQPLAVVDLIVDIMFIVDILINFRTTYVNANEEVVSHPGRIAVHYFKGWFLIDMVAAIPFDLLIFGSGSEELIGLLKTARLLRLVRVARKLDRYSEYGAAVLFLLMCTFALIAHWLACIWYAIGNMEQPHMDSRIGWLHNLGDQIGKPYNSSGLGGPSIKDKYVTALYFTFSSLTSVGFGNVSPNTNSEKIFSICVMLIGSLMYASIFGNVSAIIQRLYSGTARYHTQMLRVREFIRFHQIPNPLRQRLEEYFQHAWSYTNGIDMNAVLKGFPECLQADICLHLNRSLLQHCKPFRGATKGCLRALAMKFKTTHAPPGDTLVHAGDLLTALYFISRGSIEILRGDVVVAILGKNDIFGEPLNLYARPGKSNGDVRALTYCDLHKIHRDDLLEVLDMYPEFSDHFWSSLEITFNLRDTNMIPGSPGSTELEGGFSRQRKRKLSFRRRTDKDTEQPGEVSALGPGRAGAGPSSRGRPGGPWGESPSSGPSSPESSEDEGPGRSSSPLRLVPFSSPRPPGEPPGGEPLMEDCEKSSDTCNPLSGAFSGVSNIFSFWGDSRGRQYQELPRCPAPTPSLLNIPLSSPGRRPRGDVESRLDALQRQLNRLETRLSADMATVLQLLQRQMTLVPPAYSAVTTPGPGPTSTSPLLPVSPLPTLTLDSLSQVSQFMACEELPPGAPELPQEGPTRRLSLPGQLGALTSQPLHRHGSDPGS

SMILES	hERG current change (%, negative = inhibition) at 10uM [%]
CC(C(=O)NC(=O)NC1CCCCC1)N1CCN(c2ccc(O)cc2)CC1 (centres unmarked)	-33.6
O=C(COC(=O)c1ccc2ccccc2n1)Nc1ncc(C(F)(F)F)cc1Cl	-2.24
CCC(=O)Nc1ccc2c(c1)nc(CCNC(=O)c1ccco1)n2C	19
CCc1ccccc1NS(=O)(=O)c1ccc(SC)cc1	14.9
CCOc1ccc(CCNC(=O)COC(=O)C2CCN(S(=O)(=O)c3ccc(C)c(C)c3)CC2)cc1OCC	-16.3
Cc1cc(NC(=O)Cn2c(C)nc3ccccc3c2=O)ccc1Br	-8.17
COc1ccc(C)cc1NC(=O)NCc1ccccn1	8.33
CCC(=O)Nc1nc2ccc(NC(C)=O)cc2s1	-1.01
COc1ccc(NC(=O)C2CCC(C(C)(C)C)CC2)cc1S(=O)(=O)N1CCOCC1 (centres unmarked)	-24.5
CCCn1c(SCC(=O)NC23CC4CC(CC(C4)C2)C3)n[nH]c1=O	1.76
O=C(O)CCC(=O)N1N=C(c2cccs2)CC1c1cccc([N+](=O)[O-])c1 (centres unmarked)	20
O=C(NCCc1ccc(C(F)(F)F)cc1)C1CCC(=O)N(C2CC2)C1 (centres unmarked)	-2.94
Cc1cc(NC(=O)c2cccc(F)c2)no1	-10.6
O=C(O)C1CCCN(S(=O)(=O)c2cccc3cccnc23)C1 (centres unmarked)	10.9
CC(=O)C1=C(O)C(=O)N(c2ccccn2)C1c1cccc(F)c1 (centres unmarked)	13
Cc1ccc(C)c(C(=O)CSc2n[nH]c(C(C)C)n2)c1	13
O=C(CCC(=O)N/N=C/c1ccc(Br)s1)NCc1ccccc1	5.19
O=C1CC(c2cc([N+](=O)[O-])ccc2Cl)c2c(ccc3ccccc23)N1 (centres unmarked)	-42.3
O=C1ON=C(c2ccc(Cl)cc2)/C1=C/c1ccc(O)cc1	16.1

SMILES	hERG current change (%, negative = inhibition) at 10uM [%]
O=c1[nH]c(=O)n(Cc2ccc(Oc3ccccc3)cc2)cc1Br	-1.61
Cc1c(N=Cc2c(O)n(C)c(=O)[nH]c2=O)c(=O)n(-c2ccccc2)n1C	11
CCCC(=O)N1CCCC(C(=O)c2ccc(OC)c(OC)c2)C1 (centres unmarked)	12.7
COC(=O)C1=C(C)N(Cc2ccccc2)C(=NCCCCO)N[C@H]1CCc1ccccc1	-43.3
c1ccc2c(Cn3nnc4ccccc43)cccc2c1	2.08
O=C(CN1CCCCC1)Nc1cccc(Oc2ccccc2)c1	-50.7
CC(C)[C@H](Nc1ccc(S(=O)(=O)N2CCOCC2)cc1[N+](=O)[O-])C(=O)OCC(N)=O	4.33
Cc1cc(-c2ccc([N+](=O)[O-])cc2)nc2ccccc12.Cl	9.23
CC/C(=N/NC(=O)c1ccc(Br)o1)c1ccc(Cl)cc1	7.8
Cc1onc(-c2ccccc2)c1C(=O)Nc1ccc(N2CCOCC2)cc1	4.4
CC(C)N=C(Nc1ccc(Cl)cc1)c1cccnc1	0.664
COc1ccc(CNC(=O)CN(Cc2ccco2)C(=O)CCC(=O)Nc2ccccn2)cc1	-43.2
CCn1cc(C(=O)O)c(=O)c2cc(F)c(N/N=C/c3ccccc3)cc21	-27.2
O=C(O)C(=O)O.c1ccc(Cc2ccc(OCCCNC3CCCC3)cc2)cc1	-58.9
CCC(CO)NC1=CC(=O)CCC1 (centres unmarked)	9.74
Cc1cccc(C(=O)NC2CCN(CC(=O)NCc3cccs3)CC2)c1	-39.3
COc1ccc(N2CC(C(=O)NC3CCCCC3)CC2=O)cc1 (centres unmarked)	5.46
O=C(C1CCCCC1)N1CCC(CO)(Cc2ccccc2Cl)CC1	-15.3
COc1ccc(C(=O)NNC(=O)CSc2nc3c(c(=O)n(C)c(=O)n3C)n2C)cc1	-2.04

SMILES	hERG current change (%, negative = inhibition) at 10uM [%]
Cc1ccc(OCc2cc(C(=O)NCCn3cccn3)no2)cc1C	-3.81
COc1ccc(CCNC(=O)CCCCCNc2nc(=S)[nH]c3ccccc23)cc1OC	-31
COc1ccccc1OCCC(=O)OCC(=O)Nc1ccc(Br)cc1	-2.01
O=C(Nc1ccc(S(=O)(=O)N2CCCCCC2)cc1)c1ccco1	-72.5
COc1cc(NC(=O)c2cccc([N+](=O)[O-])c2)ccc1NC(=O)c1ccco1	-17.8
CCOc1ccc(N(CC(=O)NC2CCCCC2)C(=O)CCC(=O)Nc2ccccn2)cc1	-23.3
NS(=O)(=O)c1ccc(CCNC(=O)CNS(=O)(=O)c2cccc(Br)c2)cc1	13.2
COc1ccc(Br)cc1CN1CCN(Cc2c[nH]c3ccccc23)CC1.O=C(O)C(=O)O	-29.2
Cc1cc(N2CCCCC2)nc(N2CCOCC2)n1	-15.2
COC(=O)[C@H](CC(C)C)NCc1cccc(CN[C@@H](CC(C)C)C(=O)OC)c1	-10.4
CCC(=O)N1c2ccccc2NC2=C(C(=O)CCC2)C1c1cccnc1 (centres unmarked)	13
Cc1cccc(OCc2nnc(SCC(=O)O)n2-c2ccccc2)c1	7.17
Nc1nc2ccc(C(=O)Nc3ccccc3)cc2s1	7.6
CC(Oc1ccc(Cl)cc1)C(=O)N(C)CC(=O)Nc1ccc(N2CCOCC2)cc1 (centres unmarked)	5.8
CC(=O)O[C@]1(C(C)=O)CCC2C3CCC4=C/C(=N/OCC(=O)O)CC[C@]4(C)C3CC[C@@]21C (some centres unmarked)	14.7
O=C(NC(=S)Nc1ccccc1Cl)c1cncc(C#Cc2ccccc2)c1	12.8
Cc1ccc(NC(=O)CSc2nnc(-c3ccccn3)n2N)cc1F	-48.5
COc1cccc(NC(=O)CSc2nc3ccccc3c(=O)n2C)c1	-7.76
